In PubChem BioAssay AID588579 (National Center for Advancing Translational Sciences (NCATS), 2011):
“And” between values parts separate entries of the source, which are not always exact repeats. Identical values can stand only once. Among all 400,000 compounds or so, about 2,200 (0.55%) were called active. This list was built around the results that the source calls inconclusive (neither active nor inactive); the mix of calls is not that of the screen. Calls follow the shape of the dose curve; as a rule, active = well fitted inhibition curve with a large enough effect; inconclusive = small, poorly fitted or top-dose-only effect, or another doubt; inactive = no such curve, though single readings can be large or run the other way. A potency beside an inconclusive call is a rough fit, not a confirmed value. Where a structure was tested more than once in an assay, its records may differ in their call.

target: DNA polymerase kappa (Homo sapiens) (UniProt Q9UBT6); assay: qHTS for Inhibitors of Polymerase Kappa; settings: purified Pol kappa, fluorescent DNA synthesis assay, 10 min; series mostly up to 107 µM; activity, negative = inhibition: at the top concentration
Method in brief: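 Enzyme at 10 nM met test compounds for 15 min at room temperature. Substrate addition (50 nM final) began the reaction, which was monitored by fluorescence at 0 and 10 min.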
% is scaled to controls: 0 for no effect and ±100 for the full control effect; potency is read from the fitted curve at half-maximal effect; tags tell the direction and shape of the fitted curve.

Chain of UniProt Q9UBT6 (Q9UBT6 whole entry, looked up): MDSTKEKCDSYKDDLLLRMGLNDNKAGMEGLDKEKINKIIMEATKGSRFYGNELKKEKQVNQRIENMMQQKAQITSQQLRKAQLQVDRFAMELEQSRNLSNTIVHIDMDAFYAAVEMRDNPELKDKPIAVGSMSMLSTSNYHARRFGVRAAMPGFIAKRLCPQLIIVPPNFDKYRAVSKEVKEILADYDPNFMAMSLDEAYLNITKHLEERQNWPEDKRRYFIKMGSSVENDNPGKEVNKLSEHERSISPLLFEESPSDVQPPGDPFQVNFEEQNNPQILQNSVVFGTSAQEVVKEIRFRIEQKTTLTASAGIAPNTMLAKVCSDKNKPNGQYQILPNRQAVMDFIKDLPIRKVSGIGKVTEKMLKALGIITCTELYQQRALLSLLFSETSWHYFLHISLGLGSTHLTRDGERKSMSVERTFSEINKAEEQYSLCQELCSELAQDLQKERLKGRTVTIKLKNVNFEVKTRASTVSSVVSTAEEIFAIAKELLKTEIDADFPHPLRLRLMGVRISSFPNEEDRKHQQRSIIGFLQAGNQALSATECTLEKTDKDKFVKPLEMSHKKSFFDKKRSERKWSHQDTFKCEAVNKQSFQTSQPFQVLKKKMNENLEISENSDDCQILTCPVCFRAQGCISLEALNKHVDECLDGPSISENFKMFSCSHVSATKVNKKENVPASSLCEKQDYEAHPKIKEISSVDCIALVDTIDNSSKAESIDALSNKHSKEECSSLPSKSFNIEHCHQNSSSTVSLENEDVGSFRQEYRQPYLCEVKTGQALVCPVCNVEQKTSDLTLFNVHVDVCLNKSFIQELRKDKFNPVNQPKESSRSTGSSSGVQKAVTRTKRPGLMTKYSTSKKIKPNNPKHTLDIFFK

Structure (SMILES)	Potency	activity, negative = inhibition
O=C(CC1N=C2c3ccccc3N=C(SCc3ccc(Cl)cc3)N2C1=O)NCc1ccco1 (stereo not drawn)	inconclusive: 79.4 µM [inhibitor, partial curve, poor fit]	–
Nc1ccn([C@@H]2O[C@H](CO)[C@@H](O)C2O)c(=O)n1 (stereo partly drawn)	inactive	–
C=C1c2c(Cl)ccc(O)c2C(O)=C2C(=O)[C@@]3(O)C(O)=C(C(N)=O)C(=O)[C@@H](N(C)C)[C@@H]3[C@@H](O)[C@H]12	active: 2.54 µM	–
CCC(=O)N1CCc2cc(S(=O)(=O)NCCC(=O)N3CCN(c4cccc(OC)c4)CC3)ccc21	inconclusive: 89.1 µM [inhibitor, single point]	–
Cc1ccc(-n2nc(C(=O)N3CCN(c4cc(Cl)ccc4C)CC3)c(=O)n(C)c2=O)cc1	–	inactive: -6.02% [at 60.1 µM]
CCC1CCCCN1C(=O)CSc1nc2ncccc2[nH]1 (stereo not drawn)	active: 25.1 µM	–
CCCCCCCCCC[n+]1ccc(/C=C/c2ccc(N(C)C)cc2)c2ccccc21	active: 39.8 µM	–
CCN(CC)CCOc1ccc2c(c1)C(=O)c1cc(OCCN(CC)CC)ccc1-2	inconclusive: 25.1 µM [inhibitor, single point]	–
CCOc1cc(/C=C2/C(=N)N3C(=NC2=O)SN=C3S(C)(=O)=O)ccc1OS(=O)(=O)c1ccccc1	–	inactive: -8.91%
Cc1ccc(NCC(=O)N/N=C/c2ccc(C(=O)O)cc2)cc1	inconclusive: 89.1 µM [inhibitor, single point]	–
COC(=O)N/N=C/c1ccc(OC(=O)/C=C/c2ccco2)cc1	inconclusive: 63.1 µM [inhibitor, partial curve, poor fit]	–
COc1ccc(C(=O)COC(=O)c2ccccc2O)c(OC)c1	inconclusive: 25.1 µM [inhibitor, full curve]	–
C[C@@H]1CN([C@@H](C)CO)C(=O)c2cc(N(C)C)ccc2O[C@@H]1CN(C)Cc1ccncc1	–	inactive: 2.89%
Cc1c2cc[n+](CCN3CCCCC3)cc2c(C)c2c1[nH]c1ccc(O)cc12	active: 35.5 µM	–
COc1cccc2cc(C(=O)CS(=O)(=O)c3ccc(C(C)(C)C)cc3)c(=O)oc12	–	inactive: -9.59%
Cc1cc(C)nc(NC(=O)CSc2nc3cc(Cl)ccc3s2)n1	inconclusive: 89.1 µM [inhibitor, partial curve, poor fit]	–
Cc1[nH]c2ccccc2c1N=Nc1cc(C(=O)O)cc(C(=O)O)c1	inconclusive: 89.1 µM [inhibitor, single point]	–
O=C(O)c1ccc2[nH]c3c(c2c1)CSCC3	inconclusive: 89.1 µM [inhibitor, partial curve, poor fit]	–
Cc1c(Cl)cccc1NC(=O)CCS(=O)(=O)c1ccc(Br)s1	inconclusive: 79.4 µM [inhibitor, partial curve, poor fit]	–
Cc1cc(C)c2c(=O)n(CC(=O)NC3CCCC3)sc2n1	–	inactive: -21.5%
COc1cccc(NC(=O)COC(=O)/C=C/c2ccco2)c1	active: 79.4 µM	–
Fc1ccc(CNc2ncnc3c2c(-c2ccccc2)cn3-c2ccccc2)cc1	–	inactive: 3.79% [at 60.1 µM]
CCCC(=O)Nc1nc2c(OC)ccc(OC)c2s1	inconclusive: 100 µM [inhibitor, single point]	–

Structure (SMILES)	Potency	activity, negative = inhibition
CCN1C/C(=C/c2ccc(N3CCOCC3)cc2)C(=O)/C(=C/c2ccc(N3CCOCC3)cc2)C1	inconclusive: 39.8 µM [inhibitor, partial curve, poor fit]	–
CSc1nc(Sc2ccccc2)c2ccccc2n1	–	inactive: -8.52%
CCOC(=O)c1c(NC(=O)COC(=O)c2ccc(NC(=O)CC#N)cc2)sc(C(=O)NC)c1C	inconclusive: 50.1 µM [inhibitor, partial curve, poor fit]	–
Nc1ccc2cn[nH]c2c1	inconclusive: 89.1 µM [inhibitor, partial curve, poor fit]	–
Cc1ncoc1C(=O)Nc1ncc([N+](=O)[O-])s1	inconclusive: 89.1 µM [inhibitor, partial curve, poor fit]	–
Nc1nc(=S)c2ncn(C3OC(CO)C(O)C3O)c2[nH]1 (stereo not drawn)	inconclusive: 39.8 µM [inhibitor, full curve, poor fit]	–
Cc1ccc2occ(CC(=O)Nc3ccc(S(N)(=O)=O)cc3)c2c1	inconclusive: 79.4 µM [inhibitor, partial curve]	–
Cc1ccc2ccc(C(Nc3ccccn3)c3ccccc3)c(O)c2n1 (stereo not drawn)	inactive	–
N#Cc1c(N)nc2c3c(sc(=N)c2c1N)NC(=O)CC3c1ccccc1 (stereo not drawn)	–	inactive: -14.5%
COc1ccccc1-[n+]1c(C)cc(/C=C2\Sc3ccccc3N2C)cc1C	inconclusive: 50.1 µM [inhibitor, partial curve, poor fit]	–
CCOC(=O)c1ccccc1Nc1cn(C(C)=O)c2ccccc12	–	inactive: -1.1%
Cc1cc(C)c(NC(=O)CO/N=C2\CCCc3nonc32)c(C)c1	–	inactive: 0.312%
O=C(O)c1ccc2c(c1)C(=O)/C(=C/c1ccccc1)C2=O	active: 25.1 µM	–
Oc1cc(O)cc(O)c1	inconclusive: 23.8 µM [inhibitor, partial curve, poor fit]	–
CC(=O)c1nnn(-c2nc(C#N)nc(N3CCOCC3)n2)c1C	inconclusive: 89.1 µM [inhibitor, single point]	–
NS(=O)(=O)c1ccc(NC(=S)NC(=O)/C=C/c2cccs2)cc1	–	inactive: -10.4%
COc1ccc(N=C2S/C(=C\c3ccc(OC(C)C(=O)O)c(OC)c3)C(=O)N2CCc2c[nH]c3ccccc23)cc1 (stereo not drawn)	inconclusive: 89.1 µM [inhibitor, single point]	–
Cc1ccc(-n2c(O)c(/C=N/n3cnnc3)c3ccccc3c2=O)cc1	inconclusive: 89.1 µM [inhibitor, partial curve, poor fit]	–
COCC(C)n1c(C)cc(C(=O)CSc2nnc(-c3ccco3)o2)c1C (stereo not drawn)	–	inactive: -14%
CN(C)c1ccc(/C=C/c2ccc3c4ccccc4ccc3[n+]2-c2ccccc2)cc1	active: 44.7 µM	–
CC(NC(=O)COC(=O)/C=C/c1ccc([N+](=O)[O-])cc1)c1ccccc1 (stereo not drawn)	inconclusive: 89.1 µM [inhibitor, single point]	–
CCCCC(CC)COC(=O)C(C#N)=C(c1ccccc1)c1ccccc1 (stereo not drawn)	inconclusive: 39.8 µM [inhibitor, partial curve, poor fit]	–
O=C(CN1CCN(S(=O)(=O)c2ccc(Cl)cc2)CC1)c1ccc(O)c(O)c1	active: 20 µM	–

Structure (SMILES)	Potency	activity, negative = inhibition
CCOC(=O)c1cc2c(OC)ccc(OC)c2n1CC(=O)c1ccccc1	–	inactive: -1.79%
COc1ccc(NC(=O)c2cc3ccccc3cc2OC)cc1	inconclusive: 89.1 µM [inhibitor, single point]	–
COc1cc(/C=C(\C#N)c2[nH]nc(N)c2C#N)cc(OC)c1O	–	inactive: -20.4%
Oc1ccc(/C=N/Nc2ccc(Cl)nn2)c(O)c1O	inconclusive: 3.55 µM [inhibitor, full curve, poor fit]	–
Cc1nn(CC(=O)NCc2cccc(F)c2)c(=O)c2cccn12	active: 89.1 µM	–
CN1/C(=C\C=C2/C(=O)Oc3ccccc3C2=O)C(C)(C)c2ccccc21	inconclusive: 39.8 µM [inhibitor, single point]	–
CCOC(=O)c1ccc(NC(=O)CCc2c(C)nc3c(c(C)nn3C)c2C)cc1	–	inactive: -22.8%
O=C(O)CCCN1C(=O)/C(=C\c2ccco2)SC1=S	active: 11.2 µM	–
O=C(Nc1ccccc1C(F)(F)F)C1CCN(S(=O)(=O)Cc2ccccc2)CC1	–	inactive: -5.05%
COc1cccc(NC(=O)CN(C)C(=O)c2cccc(S(=O)(=O)N3c4ccccc4CC3C)c2)c1 (stereo not drawn)	–	inactive: -15.8%
O=C1CN(/N=C/c2ccc([N+](=O)[O-])o2)C(=O)N1	inconclusive: 31.6 µM [inhibitor, single point]	–
S=c1ccss1	inconclusive: 39.8 µM [inhibitor, partial curve, poor fit]	–
O=C(CSc1nc2ncccc2[nH]1)Nc1cc(F)ccc1F	–	inactive: 12.3%
NC(=NCCCCCCN=C(N)/N=C(\N)Nc1ccc(Cl)cc1)/N=C(\N)Nc1ccc(Cl)cc1	inconclusive: 21.2 µM [inhibitor, partial curve, poor fit] and inconclusive: 17.8 µM [inhibitor, partial curve] and inconclusive: 89.1 µM [inhibitor, partial curve, poor fit]	–
CC(C)(C)C(=O)OCc1nc(-c2ccc(O)c(O)c2)cs1	inconclusive: 56.2 µM [inhibitor, partial curve, poor fit]	–
COc1c(-c2ccccc2)oc2c(ccc3occc32)c1=O	inconclusive: 0.316 µM [inhibitor, partial curve, poor fit]	–
Cc1c(C(=O)O)c(O)cc2c1C(=O)c1c(O)c([C@@H]3O[C@H](CO)[C@@H](O)[C@H](O)[C@H]3O)c(O)c(O)c1C2=O	active: 50.1 µM	–
CC(=O)c1ccc(-c2nc3c4ccccc4ccn3c2C(C)=O)o1	inconclusive: 39.8 µM [inhibitor, single point]	–
Cc1ccc(N(Cc2cccs2)C(=O)C(C)Oc2ccc(Cl)c(C)c2)cc1 (stereo not drawn)	inconclusive: 89.1 µM [inhibitor, single point]	–
O=C(O)CCN1C(=O)/C(=C\c2cccc(OCC(=O)Nc3ccc(Cl)cc3)c2)SC1=S	inconclusive: 89.1 µM [inhibitor, single point]	–
O=S(=O)(Nc1cccc2ccccc12)c1ccc2ccccc2c1	inconclusive: 100 µM [inhibitor, partial curve, poor fit]	–
C#CCN1C(=O)C(O)(CC(=O)/C=C/c2ccco2)c2ccccc21 (stereo not drawn)	inconclusive: 89.1 µM [inhibitor, partial curve, poor fit]	–
